Reference: patent publication US20100036088A1, “Selective poly-N-substituted glycine antibiotics” (priority 2008, published 2010)
Like-named read-outs stand apart in the source and are kept apart here. At least one peptide structure holds a part that was inferred or is arguable (an end, a ring closure or a residue). Some entries share one result that the patent states for a list of compounds. Square brackets hold non-standard residues; d marks the D form. Peptide text beside a SMILES is read from it. N(1S-Me-propyl)Gly = CC[C@H](C)NCC(=O)O; Nspe = C[C@H](NCC(=O)O)c1ccccc1; NDecylGly = CCCCCCCCCCNCC(=O)O; NPentylGly = CCCCCNCC(=O)O; Nlys = NCCCCNCC(=O)O

How the values were obtained:
[1] = test system: E. coli (ATCC 35218); assay type: cell-based
Method: Whereas the preceding generation of molecules was designed to elucidate structure function relationships of specific molecular parameters (chirality, length, hydrophobicity, etc.), another generation compounds were designed explicitly to explore effects on selectivity. Antimicrobial activity of these compounds was tested against bacterial strains E. coli (ATTC 35218) and B. subtilis (ATTC 6633) in cation-adjusted MHB using the microdilution protocols previously described. The sequences, antimicrobial activities, hemolytic activities, and metabolic inhibitory concentrations against NIH 3T3 mouse fibroblast cells are summarized in Table 3 and the rationale of their design is described below.
The potencies of all compounds were determined against representative Gram-negative (E. coli ATCC 35218) and Gram-positive (B. subtilis ATCC 6633) biosafety level 1 (BSL1) organisms. In addition to hemolytic activity, the conventional measure of toxicity to mammalian cells, the effect of each ampetoid on NIH 3T3 mouse fibroblast cells was determined using the MTS tetrazolium salt-based calorimetric assay. While hemolysis measures the degree to which erythrocytes are lysed, the MTS assay indirectly quantifies the extent to which cellular metabolic activity is inhibited.
Screening antibacterial assays. MICs were determined in 96-well microtiter plates in accordance with CLSI M7-A6 protocols. Peptoid solutions with 50 μL total volume were prepared using 2:1 serial dilutions. 50 μL of bacteria inoculum (1×10^6 CFU/mL) prepared in cation-adjusted Mueller-Hinton broth (CAMHB) was added to test wells. Control wells contained 100 μL MHB (no growth) or 50 μL inoculums with 50 μL MHB with no peptoid. […] Reported values were reproducible over three experiments, each containing two parallel trials.

[2] = RP-HPLC elution solvent composition as measure of molecular hydrophobicity; assay type: physicochemical; conditions: for HPLC elution (% ACN): Table 5, average of three injections, linear 5%-95% acetonitrile/water (0.1% TFA) over 45 minutes, measure of hydrophobicity; for HPLC elution (% ACN) / HPLC elution: C18 column; for HPLC elution solvent: Table 1, percent acetonitrile in water, 0.1% (v/v) TFA at HPLC elution; for HPLC elution: Table 2, percent acetonitrile in H2O, 0.1% TFA, pH 1
Excerpt: An initial set of 15 ampetoid analogs was synthesized to determine whether peptoids are affected by structural and sequence modifications in a manner consistent with AMP activities. The designs for ampetoids in this library were derived from two antibacterial and selective amphipathic dodecamers, 1 and 2. Peptoid 1 [H-(Nlys-Nspe-Nspe)4—NH2] is composed of 2/3 Nspe, the peptoid analog of phenylalanine, and 1/3 Nlys, the peptoid analog of lysine (see FIG. 1 for the structures of representative peptoid monomers and corresponding N-substituents). Peptoid 2 [H-(Nlys-Nssb-Nspe)4—NH2] contains 1/3 isoleucine-like Nssb monomers in place of Nspe. The variant sequences were designed to effect changes in chirality, length, hydrophobicity, charge, and amphipathicity. All of these compounds were tested for antibacterial activity against representative BSL1 Gram-negative (E. coli JM109) and Gram-positive (B. subtilis BR151) bacterial strains. As an initial measure of selectivity, the lytic activity of the peptoids was determined against human erythrocytes. Table 1 summarizes the sequences synthesized, the solvent composition at RP-HPLC elution as a relative measure of molecular hydrophobicity, and antibacterial and hemolytic activities.
Following synthesis, peptoid oligomers can be cleaved from the resin, simultaneously removing the tert-butoxycarbonyl (Boc) protecting group from Nlys residues, by treatment with 10 ml 2,2,2-trifluoroacetic acid (TFA)/triisopropylsilane/H2O (95:2.5:2.5 by volume) for 30 min. The cleavage mixture is then diluted with 25 ml 50% aqueous acetonitrile, frozen, and lyophilized. Dilution and lyophilization is repeated twice more in order to remove excess TFA. Subsequent to cleavage, peptoids are each purified to >97% homogeneity by preparative scale reversed-phase HPLC using a Waters Prep LC 4000 system, with Waters 2487 dual-wavelength UV detection, and gradient elution (solvent A, 0.1 vol % trifluoroacetic acid (TFA) in water; solvent B, 0.1 vol % TFA in acetonitrile) through a Vydac (Hysperia, Calif.) 214TP101550 C4 peptide/protein column (10-15 μm, 300 Å, 5×25 cm). Following prep HPLC, peptoid purities and crude yields were determined from analytical scale HPLC, performed with a Waters 2695 Separations Module with a Waters 2487 dual-wavelength UV detector and gradient elution (solvent A, 0.1 vol % TFA in water; solvent B, 0.1 vol % TFA in acetonitrile) through a Vydac C4 214TP53 peptide/protein column (5 μm, 300 Å, 3.2×250 mm). The precise gradient employed for HPLC depended on the identity and hydrophobicity of the oligomer in question. All analytical HPLC was performed at 0.5 ml/min flow and 58° C. Preparative HPLC was performed at 50 ml/min flow and room temperature.

| HPLC elution (% ACN) [2] [% ACN] | HPLC elution [2] [%] | SMILES | further results |
| --- | --- | --- | --- |
| – | 58 | CCCCCCCCCCNCC(=O)N(CCCCN)CC(=O)N(CC(=O)N(CC(=O)N(CCCCN)CC(=O)N(CC(=O)N(CC(=O)N(CCCCN)CC(=O)N(CC(=O)N(CC(=O)N(CCCCN)CC(=O)N(CC(=O)N(CC(N)=O)[C@@H](C)c1ccccc1)[C@@H](C)c1ccccc1)[C@@H](C)c1ccccc1)[C@@H](C)c1ccccc1)[C@@H](C)c1ccccc1)[C@@H](C)c1ccccc1)[C@@H](C)c1ccccc1)[C@@H](C)c1ccccc1 [C10-1] (H-[NDecylGly][Nlys][Nspe][Nspe][Nlys][Nspe][Nspe][Nlys][Nspe][Nspe][Nlys][Nspe][Nspe]-NH2) | – |
| – | 50 | CCCCCCCCCCNCC(=O)N(CCCCN)CC(=O)N(CC(=O)N(CC(=O)N(CCCCN)CC(N)=O)[C@@H](C)c1ccccc1)[C@@H](C)c1ccccc1 [C10-14 mer] (H-[NDecylGly][Nlys][Nspe][Nspe][Nlys]-NH2) | – |
| – | 59 | CCCCCCCCCCNCC(=O)N(CCCCN)CC(=O)N(CC(=O)N(CC(=O)N(CCCCN)CC(=O)N(CC(=O)N(CC(N)=O)[C@@H](C)c1ccccc1)[C@@H](C)c1ccccc1)[C@@H](C)c1ccccc1)[C@@H](C)c1ccccc1 [C10-16 mer] (H-[NDecylGly][Nlys][Nspe][Nspe][Nlys][Nspe][Nspe]-NH2) | – |
| – | 59 | CCCCCCCCCCNCC(=O)N(CCCCN)CC(=O)N(CC(=O)N(CC(=O)N(CCCCN)CC(=O)N(CC(=O)N(CC(=O)N(CCCCN)CC(=O)N(CC(=O)N(CC(N)=O)[C@@H](C)c1ccccc1)[C@@H](C)c1ccccc1)[C@@H](C)c1ccccc1)[C@@H](C)c1ccccc1)[C@@H](C)c1ccccc1)[C@@H](C)c1ccccc1 [C10-19 mer] (H-[NDecylGly][Nlys][Nspe][Nspe][Nlys][Nspe][Nspe][Nlys][Nspe][Nspe]-NH2) | – |

More lines, now with the values behind:

| SMILES | HPLC elution (% ACN) [2] [% ACN] | HPLC elution [2] [%] | further results |
| --- | --- | --- | --- |
| C[C@@H](c1ccccc1)N(CC(N)=O)C(=O)CN(C(=O)CN(CCCCN)C(=O)[C@@H]1CCCN1C(=O)CN(C(=O)CN(CCCCN)C(=O)CN(C(=O)CN(C(=O)CN(CCCCN)C(=O)[C@@H]1CCCN1C(=O)CN(C(=O)CNCCCCN)[C@@H](C)c1ccccc1)[C@@H](C)c1ccccc1)[C@@H](C)c1ccccc1)[C@@H](C)c1ccccc1)[C@@H](C)c1ccccc1 [1-Pro3,9, H-(Nlys-Nspe-L-Pro-Nlys-Nspe-Nspe)2-NH2] (H-[Nlys][Nspe]P[Nlys][Nspe][Nspe][Nlys][Nspe]P[Nlys][Nspe][Nspe]-NH2) | 58.1 | – | E. coli MIC ([1]; Table 6): 50 µM |
| C[C@H](NCC(=O)N(CCCCN)CC(=O)N(CC(=O)N(CCCCN)CC(=O)N(CCCCN)CC(=O)N(CCCCN)CC(=O)N(CC(=O)N(CCCCN)CC(=O)N(CC(=O)N(CCCCN)CC(=O)N(CCCCN)CC(=O)N(CC(=O)N(CC(=O)N(CCCCN)CC(=O)N(CC(N)=O)[C@@H](C)c1ccccc1)[C@@H](C)c1ccccc1)[C@@H](C)c1ccccc1)[C@@H](C)c1ccccc1)[C@@H](C)c1ccccc1)[C@@H](C)c1ccccc1)c1ccccc1 [1B15mer-Nlys4,6,10, H-(Nspe-Nlys)2-Nlys2-(Nspe-Nlys)2-Nlys-Nspe2-Nlys-Nspe-NH2] (H-[Nspe][Nlys][Nspe][Nlys][Nlys][Nlys][Nspe][Nlys][Nspe][Nlys][Nlys][Nspe][Nspe][Nlys][Nspe]-NH2) | 50.8 | – | E. coli MIC ([1]; Table 6, listed as 1B5mer-Nlys4,6,10): > 100 µM |
| C[C@H](NCC(=O)N(CCCCN)CC(=O)N(CC(=O)N(CCCCN)CC(=O)N(CCCCN)CC(=O)N(CC(=O)N(CC(=O)N(CCCCN)CC(=O)N(CC(=O)N(CCCCN)CC(=O)N(CCCCN)CC(=O)N(CC(=O)N(CC(=O)N(CCCCN)CC(=O)N(CC(N)=O)[C@@H](C)c1ccccc1)[C@@H](C)c1ccccc1)[C@@H](C)c1ccccc1)[C@@H](C)c1ccccc1)[C@@H](C)c1ccccc1)[C@@H](C)c1ccccc1)[C@@H](C)c1ccccc1)c1ccccc1 [1B15mer-Nlys4,10, H-(Nspe-Nlys-Nspe-Nlys-Nlys-Nspe)2-Nspe-Nlys-Nspe-NH2] (H-[Nspe][Nlys][Nspe][Nlys][Nlys][Nspe][Nspe][Nlys][Nspe][Nlys][Nlys][Nspe][Nspe][Nlys][Nspe]-NH2) | 55.5 | – | E. coli MIC ([1]; Table 6): 50 µM |
| C[C@H](NCC(=O)N(CCCCN)CC(=O)N(CC(=O)N(CC(=O)N(CCCCN)CC(=O)N(CC(=O)N(CC(=O)N(CCCCN)CC(=O)N(CC(=O)N(CC(=O)N(CCCCN)CC(=O)N(CC(N)=O)[C@@H](C)c1ccccc1)[C@@H](C)c1ccccc1)[C@@H](C)c1ccccc1)[C@@H](C)c1ccccc1)[C@@H](C)c1ccccc1)[C@@H](C)c1ccccc1)[C@@H](C)c1ccccc1)c1ccccc1 [1B, H-(Nspe-Nlys-Nspe)4-NH2] (H-[Nspe][Nlys][Nspe][Nspe][Nlys][Nspe][Nspe][Nlys][Nspe][Nspe][Nlys][Nspe]-NH2) | 63.4 | – | E. coli MIC ([1]; Table 6): 6.3 µM |
| C[C@@H](c1ccccc1)N(CC(N)=O)C(=O)CN(C(=O)CN(CCCCN)C(=O)CN(C(=O)CN(C(=O)CN(CCCCN)C(=O)CN(C(=O)CN(C(=O)CN(CCCCN)C(=O)CN(C(=O)CN(C(=O)CN(CCCCN)C(=O)CN(C(=O)CN(C(=O)CNCCCCN)[C@@H](C)c1ccccc1)[C@@H](C)c1ccccc1)[C@@H](C)c1ccccc1)[C@@H](C)c1ccccc1)[C@@H](C)c1ccccc1)[C@@H](C)c1ccccc1)[C@@H](C)c1ccccc1)[C@@H](C)c1ccccc1)[C@@H](C)c1ccccc1 [115 mer, H-(Nlys-Nspe-Nspe)5-NH2] | – | – | HPLC elution solvent [2]: 51% |
| CCCCCNCC(=O)N(CCCCN)CC(=O)N(CC(=O)N(CC(=O)N(CCCCN)CC(=O)N(CC(=O)N(CC(=O)N(CCCCN)CC(=O)N(CC(=O)N(CC(=O)N(CCCCN)CC(=O)N(CC(=O)N(CC(N)=O)[C@@H](C)c1ccccc1)[C@@H](C)c1ccccc1)[C@@H](C)c1ccccc1)[C@@H](C)c1ccccc1)[C@@H](C)c1ccccc1)[C@@H](C)c1ccccc1)[C@@H](C)c1ccccc1)[C@@H](C)c1ccccc1 [C5-1] (H-[NPentylGly][Nlys][Nspe][Nspe][Nlys][Nspe][Nspe][Nlys][Nspe][Nspe][Nlys][Nspe][Nspe]-NH2) | – | 51 | – |
| CCCCCNCC(=O)N(CCCCN)CC(=O)N(CC(=O)N(CC(=O)N(CCCCN)CC(=O)N(CC(=O)N(CC(N)=O)[C@@H](C)c1ccccc1)[C@@H](C)c1ccccc1)[C@@H](C)c1ccccc1)[C@@H](C)c1ccccc1 [C5-16 mer] (H-[NPentylGly][Nlys][Nspe][Nspe][Nlys][Nspe][Nspe]-NH2) | – | 49 | – |
| CCCCCNCC(=O)N(CCCCN)CC(=O)N(CC(=O)N(CC(=O)N(CCCCN)CC(=O)N(CC(=O)N(CC(=O)N(CCCCN)CC(=O)N(CC(=O)N(CC(N)=O)[C@@H](C)c1ccccc1)[C@@H](C)c1ccccc1)[C@@H](C)c1ccccc1)[C@@H](C)c1ccccc1)[C@@H](C)c1ccccc1)[C@@H](C)c1ccccc1 [C5-19 mer] (H-[NPentylGly][Nlys][Nspe][Nspe][Nlys][Nspe][Nspe][Nlys][Nspe][Nspe]-NH2) | – | 48 | – |
| CC[C@H](C)N(CC(=O)N(CC(N)=O)[C@@H](C)c1ccccc1)C(=O)CN(CCCCN)C(=O)CN(C(=O)CN(C(=O)CN(CCCCN)C(=O)CN(C(=O)CN(C(=O)CN(CCCCN)C(=O)CN(C(=O)CN(C(=O)CNCCCCN)[C@@H](C)CC)[C@@H](C)c1ccccc1)[C@@H](C)CC)[C@@H](C)c1ccccc1)[C@@H](C)CC)[C@@H](C)c1ccccc1 [compound 2, H-(Nlys-Nssb-Nspe)4-NH2] (H-[Nlys][N(1S-Me-propyl)Gly][Nspe][Nlys][N(1S-Me-propyl)Gly][Nspe][Nlys][N(1S-Me-propyl)Gly][Nspe][Nlys][N(1S-Me-propyl)Gly][Nspe]-NH2) | – | – | HPLC elution solvent [2]: 39% |
